From PubChem BioAssay AID485344 (National Center for Advancing Translational Sciences (NCATS), 2010)
About 6,900 (2%) of roughly 340,000 compounds were called active. Rule as the data show it: active = inhibition above about 30%; inactive = below that, where a call was filed. The list shows a part of the results, in another mix than the full data. The source gives no active or inactive call for entries shown without one.

What follows are compounds tested against D(2) dopamine receptor (Homo sapiens) (UniProt P14416) (assay: HTS Assay for Allosteric Antagonists of the Human D2 Dopamine Receptor: Primary Screen for Antagonists). Details: HEK293 TREx D2 cells, calcium flux, dopamine EC80; at 10 µM; stronger effect = higher value.
Sequence of UniProt P14416 (P14416 whole entry, looked up): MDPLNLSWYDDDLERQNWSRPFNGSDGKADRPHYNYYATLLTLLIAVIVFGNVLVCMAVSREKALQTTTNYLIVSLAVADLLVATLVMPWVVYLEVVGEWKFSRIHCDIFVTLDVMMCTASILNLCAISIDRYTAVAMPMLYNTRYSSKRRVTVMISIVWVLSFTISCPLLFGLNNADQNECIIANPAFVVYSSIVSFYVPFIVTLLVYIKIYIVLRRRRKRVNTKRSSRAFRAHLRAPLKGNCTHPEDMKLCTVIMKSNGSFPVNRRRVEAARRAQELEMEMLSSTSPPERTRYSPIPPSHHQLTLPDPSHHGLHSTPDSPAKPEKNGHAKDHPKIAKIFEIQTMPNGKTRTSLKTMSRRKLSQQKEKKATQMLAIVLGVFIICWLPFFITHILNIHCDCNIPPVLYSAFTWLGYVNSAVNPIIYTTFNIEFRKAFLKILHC
Outline: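 Read-out: kinetic calcium fluorescence (1 cycle/s) in inducible HEK293 T-REx D2 cells after an EC80 dopamine addition that followed 180 s compound preincubation. Loss of the dopamine response indicates antagonism.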
Also: 0% is about no effect.

Compound | inhibition
Cc1ccc(N2CC(c3nc4ccccc4n3CCC3CCCCC3)CC2=O)cc1 (configuration not stated) | 3.36%
COc1ccc(C2c3c(oc4ccc(F)cc4c3=O)C(=O)N2Cc2ccc3c(c2)OCO3)cc1 (configuration not stated) | -15.7%
CCOc1ccc(C(CC(=O)O)N2Cc3ccccc3C2=O)cc1OC (configuration not stated) | 4.05%
Cc1nc2ccc(S(=O)(=O)NC(C(=O)NCc3ccco3)C(C)C)cc2s1 (configuration not stated) | active: 31.5%
COc1ccc(-c2nnc(C3CCN(C(=O)c4ccccc4F)CC3)o2)cc1 | -15.5%
Cc1cccc(NC(=O)C2CCN(c3nnc(-n4c(C)ccc4C)s3)CC2)c1C | -0.0462%
Cc1ccc(S(=O)(=O)NCCc2cn3c(C)csc3n2)cc1 | -5.96%
COc1ccc(C2Sc3ccccc3NC3=C2C(=O)c2ccccc23)c(OC)c1OC (configuration not stated) | -6.85%
CCOC(=O)Cn1cnc2c(nnn2-c2ccc(F)cc2)c1=O | active: 31.9%
Cc1ccc2nc(-c3cc(NC(=O)c4ccc5c(c4)OCCO5)ccc3Cl)oc2c1 | 22.4%
COc1ccc(-c2onc(C)c2C)cc1S(=O)(=O)N1c2ccccc2CC1C (configuration not stated) | 0.0119%
O=C(NCCc1csc(-c2ccc(Cl)cc2)n1)c1cccs1 | -3.83%
CCc1ccccc1NC(=O)Cn1c(-c2nonc2N)nc2ccccc21 | 0.485%
COC(=O)c1c(NC(=O)CCCOc2ccc(C(C)(C)C)cc2)sc2c1CCC(C)C2 (configuration not stated) | -11.1%
COc1ccc(NC(=O)/C(C#N)=C/c2ccc(OCc3cc(=O)n4nc(C)sc4n3)cc2)cc1 | -2.06%
O=S(=O)(Nc1ccc2oc3c(c2c1)CCCC3)c1cc(Cl)ccc1Cl | -13.5%
CCN(C(=O)Cn1nc(Cc2cccnc2)c2ccccc2c1=O)c1ccccc1F | 4.22%
CNC(=S)NC1CC2CCC(C1)N2Cc1ccccc1 (configuration not stated) | active: 63.6%
CC(C)(C)c1ccc(OCc2nc(-c3ccccn3)no2)c(Br)c1 | active: 38.3%
O=C(NCc1ccc(Cl)cc1)C(=O)Nc1ccc(Br)cc1 | -11.3%
COc1ccc(OC2CCN(C(=O)Nc3ccc(C)cc3)CC2)cc1 | active: 49.6%
CCc1cccc(NC(=O)Cn2c(=O)n(Cc3ccccc3)c(=O)c3c2c2cc(OC)ccc2n3C)c1 | 2.85%
CC(=O)c1cc2c(cc1NC(=O)c1c(C)nn(-c3ccc(C)cc3)c1-n1cccc1)OCO2 | 5.45%
CC1CCN(Cc2c(O)ccc3c(=O)c(-c4cccc(Cl)c4)c(C(F)(F)F)oc23)CC1 | -7.25%
Cc1ccc(S(=O)(=O)Cc2nc(-c3ccc(C(=O)NCc4ccccc4)cc3)oc2C)cc1 | -11%

Compound | inhibition
Cc1ccc(NC(=O)CSc2nc3ncccc3[nH]2)cc1F | -24.2%
O=C(Nc1cccc(Br)c1)N1CCC(CN2CCCCC2)CC1 | -9.92%
COc1ccc(OCCn2cc(C(=O)C3CCCCC3)c3ccccc32)cc1 | -3.37%
COc1ccccc1CN1CCN(Cc2ccc3ccccc3c2)CC1 | active: 67.7%
O=C(c1ccc2c(c1)CCN2S(=O)(=O)c1ccccc1)N1CCN(c2ccc(F)cc2)CC1 | -14%
COc1cccc(N2CCN(C(=O)c3cnn(C(C)(C)C)c3C3CCN(C(=O)OC(C)(C)C)CC3)CC2)c1 | -3.87%
CCOc1ccc(C(=O)Nc2c(C(=O)Nc3ccccc3F)oc3ccccc23)cc1OCC | -17.1%
O=C(Cn1c(=O)n(-c2cccc(Cl)c2)c(=O)c2sc3ccccc3c21)N1CCCC1 | 16.2%
CC(=O)c1ccc(NC(=O)c2c3c(nc4ccccc24)C(=O)N(C2CCCCC2)C3)cc1 | 18.2%
O=S1(=O)c2ccccc2N(Cc2ccccc2)c2ccccc21 | 4.48%
CCN(CC)CCCNC(=O)C1CCN(S(=O)(=O)CC)CC1 | 26.6%
CCOC(=O)CN1C(=O)C(O)(CC(=O)c2cc(OC)ccc2OC)c2ccccc21 (configuration not stated) | -17.1%
Cc1cccc(-n2c(-c3ccccc3)cn3c4c(=O)[nH]c(=O)n(C)c4nc23)c1 | 1.99%
Cn1cc(S(=O)(=O)c2ccccc2)c(=O)c2cc(F)c(N3CCN(c4ccccc4)CC3)cc21 | -0.128%
Cc1ccc(-c2cc(C(F)(F)F)n3nc(C(=O)Nc4ccc(Cl)c(C(F)(F)F)c4)cc3n2)cc1 | 13.1%
Cc1cccc(C)c1OCC(=O)Nc1nc(-c2ccc(Br)cc2)ns1 | -7.98%
Cc1cc(C)c(Cn2c3ccccc3c3cnn(CC(=O)N4CCCCCC4)c(=O)c32)c(C)c1 | 6.78%
Cc1ccc(-n2c(C)nc3c(cnn3-c3ccccc3C)c2=O)cc1F | 1.46%
CCc1ccc2oc(-c3ccc(NC(=O)c4ccc(OC)c(Br)c4)cc3)nc2c1 | 3.81%
Cc1cccc(Cn2cc(C(=O)Nc3ccc(F)c(C(F)(F)F)c3)ccc2=O)c1 | 23.6%
O=C(NCc1cccc(F)c1)c1ccc(-n2cnc3cccnc32)cc1 | 2.37%
CCn1c(=O)c2cc(C(=O)NCCc3cc(OC)ccc3OC)sc2c2ccccc21 | 12.5%
CCCCN(CC)CCNC(=O)c1cc2c(=O)oc3ccc(C)cc3c2s1 | 10.8%
O=C(c1ccc(F)cc1)N1c2nc(-c3ccco3)nn2C2(CCCCC2)[C@@H]2CCCC[C@@H]21 | -17.3%
CCOc1ccc(OCC)c(NS(=O)(=O)c2cc(Br)cc3c2N(C(C)=O)C(C)C3)c1 (configuration not stated) | -12.3%

Compound | inhibition
COc1ccc(-c2cc3nc(-c4ccc(C)cc4)cc(C(F)(F)F)n3n2)cc1 | 5.44%
COc1ccccc1CNC(=O)CCCc1nnc2n(CC(C)C)c(=O)c3sccc3n12 | 7.12%
CC(C)N(C(=O)CSc1nc2ccc(Cl)cc2[nH]1)c1ccccc1 | 6.66%
COc1ccccc1CNC(=O)CCC1N=C2c3ccccc3N=C(SCc3cccc(Cl)c3)N2C1=O (configuration not stated) | -6.59%
Cc1c(C(=O)OC2CCCC2)[nH]c2c1C(=O)CC(c1ccc(Cl)cc1)C2 (configuration not stated) | 5.19%
O=S(=O)(Nc1ccc(-c2ccc(N3CCCC3)nn2)cc1)c1ccc(Cl)cc1 | 7.87%
CC(=O)N1CCc2c(sc3c2c(=O)n(-c2ccccc2)c(=O)n3CC(=O)Nc2cccc(C)c2)C1 | -8.06%
CCOc1ccc(CNS(=O)(=O)c2c(C(=O)N3CCC(C)CC3)c(C)n(C)c2C)cc1OC | -7.22%
CCC(=O)Nc1nnc(SCc2cc(=O)c3cc(C)ccc3[nH]2)s1 | 0.205%
COc1ccc(S(=O)(=O)N(CCc2ccccc2)CC(=O)Nc2ccc(C)c(C)c2)cc1OC | 13.5%
COCCCNC(=O)Cn1ncc2ccsc2c1=O | active: 30.4%
Cc1cc(Br)ccc1N=C1C(=O)Nc2ccccc21 | active: 58.9%
COC(=O)c1nnn(CC(=O)NC(=O)Nc2cccc(C)c2C)c1C(=O)OC | 8.38%
COc1ccc2c(c1)CCc1c(C(=O)Nc3ccc(F)c(Cl)c3)noc1-2 | 2.25%
CCc1nc2ccc(C(=O)N3CCN(c4ccccc4)CC3)cc2nc1CC | 9.76%
CCOc1ccccc1NC(=O)C1CCCN(S(=O)(=O)c2c(C)[nH]c(=O)[nH]c2=O)C1 (configuration not stated) | 6.4%
CCOc1ccc(-c2nonc2NC(=O)c2oc3ccc(Br)cc3c2C)cc1 | -1.37%
O=C(CSc1nnc(-c2ccccc2)c(-c2ccccc2)n1)NC1CCCCC1 | 5.6%
Cc1ccc(N2CC(NC(=O)Cc3cccs3)CC2=O)cc1C (configuration not stated) | 6.35%
Cc1nc(N2C(=O)c3oc4ccccc4c(=O)c3C2c2cccc(OCCC(C)C)c2)sc1C (configuration not stated) | 12.7%
CCOC(=O)N1CCc2c(sc(NCc3cccc(F)c3)c2C(=O)Nc2ccccc2OCC)C1 | 4.88%
CCc1ccc(OC(C)C(=O)N2CCC(c3nc4ccccc4s3)CC2)cc1 (configuration not stated) | -2.16%
Cc1cc(C)cc(NC(=O)CCS(=O)(=O)c2cc3c4c(c2)CCN4C(=O)CC3)c1 | 5.55%
COc1ccccc1-c1cc2nc(C)c(CCC(=O)Nc3ccc(Br)c(C)c3)c(C)n2n1 | -7.02%
O=C(NC1(C(F)(F)F)C(=O)Nc2c1c(=O)[nH]c(=O)n2CCc1ccccc1)c1ccc(Cl)cc1Cl (configuration not stated) | 11.3%

Compound | inhibition
CCn1cc(C(=O)N2CCN(c3cccc(C(F)(F)F)c3)CC2)c2cc(OC)c(OC)cc2c1=O | -19.5%
Cc1cc(C)c(C#N)c(N2CCN(Cc3ccccc3)CC2)n1 | active: 73.8%
CC(C)CN(CCCNC(=O)Cn1ncc2c3ccccc3n(C)c2c1=O)CC(C)C | 2.2%
CCOC(=O)c1cc(-c2ccccc2)n(CC(=O)NC(C)c2ccccc2)c1C (configuration not stated) | -6.57%
Cc1ccc(CNC(=O)c2cc3c(s2)-c2ccccc2SC3)cc1 | -25.2%
CCOC(=O)c1ccc(NC(=O)Nc2c[nH]c(=O)[nH]c2=O)cc1 | 7.96%
COc1ccc(Cl)cc1NC(=O)CCS(=O)(=O)c1nc(-c2cccs2)cc(C(F)(F)F)n1 | -5.41%
Cc1ccc2c(c1)C(C)CC(C)(C)N2C(=O)CN1CCN(C)CC1 (configuration not stated) | active: 36.2%
Cc1ccc(-n2nc(CO)c(C(=O)NCc3ccccn3)n2)cc1C | 3.59%
CC1CCn2c(nc3cc(C(=O)NCCc4ccc(Cl)cc4)ccc32)C1 (configuration not stated) | -1.95%
COc1ccc(N2CC(NC(=O)COc3ccccc3)CC2=O)cc1OC (configuration not stated) | -26.9%
CCOC(=O)c1cnc2ccc(OC)cc2c1NCCc1ccccc1 | -11.7%
Cn1c(=O)c2c(SCC(=O)NCc3ccco3)nc(-c3ccccc3)nc2n(C)c1=O | 24.8%
CN(c1ncnc2onc(-c3cccc(Cl)c3)c12)C1CCCCC1 | -10.5%
CCc1ccc(-n2nc3cc(C)c(NC(=O)c4cccc5ccccc45)cc3n2)cc1 | 3.89%
Cc1cccc(CNC(=O)Cn2nc(C)n3c(cc4cc(F)ccc43)c2=O)c1 | 4.11%
Cc1ccc(-n2c(=O)c3c(C)c(C(=O)N(C)C)sc3n(CC(=O)C(C)(C)C)c2=O)cc1C | 13.7%
COc1ccc(CN2CCC(C(=O)c3ccc(F)cc3)CC2)cc1 | active: 78.5%
O=c1cc(-c2ccccc2)n2c(SCc3ccccc3)nnc2[nH]1 | 4.73%
CCc1ccc(-n2nc(C)c3c(C)cc(=O)n(CC(=O)N4CCCc5ccccc54)c32)cc1 | 14.6%
CCOC(=O)c1noc2ncn(CC(=O)Nc3ccc(C)c(F)c3)c(=O)c12 | 5.44%
Cc1cccc(NC(=O)CCS(=O)(=O)c2ccc3c(c2)n(C)c(=O)c(=O)n3C)c1C | -5.24%
